# Laboratory results from the supplement of paper PMC12217912.
# This is one part of the list. The full chains were built here from the parent and the listed change. Values near 0.05 are background.
# B1: TEV protease; numbered along this chain (parent)
# chain: MGESLFKGPRDYNPISSSICHLTNESDGHTTSLYGIGFGPFIITNKHLFRRNNGTLVVQSLHGVFKVKDTTTLQQHLVDGRDMIIIRMPKDFPPFPQKLKFREPQREERICLVTTNFQTKSMSSMVSDTSCTFPSGDGIFWKHWIQTKDGQCGSPLVSTRDGFIVGIHSASNFTNTNNYFTSVPKNFMELLTNQEAQQWVSGWRLNADSVLWGGHKVFMVKPEEPFQPVKEATQL
# Variants of: B1
# Assay: raw area under fraction-flipped curve 0-4 h after induction (AUC4h, not background-subtracted), DNA-recorder readout of cleavage of the substrate (dimensionless); higher = more cleavage of the substrate by the protease variant
# Settings: temperature: 34 °C; time window: 0-4 h after rhamnose induction
# Description: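 In vivo DNA recorder in E. coli TOP10(DE3) ΔrhaA at 34 °C. Each TEVp single-site mutant (parent TEVp 0) is paired with a single-site variant of the 7-mer TEVs (canonical ENLYFQ|S). The substrate sits between flexible linkers in a Bxb1-sfGFP-TEVs-SsrA fusion, so cleavage stabilises Bxb1 and speeds flipping of a recombination array, read by NGS. The value is the raw area under the fraction-flipped curve over 0-4 h after rhamnose induction (AUC4h), with ≥20 reads per time point. It is not background-subtracted; inactive controls average about 0.047.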
# 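Also: Bxb1 expression induced with 0.2% (w/v) L-rhamnose at OD600 near 0.5, cultures sampled hourly, flipped fraction per protease–substrate barcode pair counted by paired-end Illumina sequencing.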
Variant,area with substrate ENLYFQA,area with substrate ENLYFQC,area with substrate ENLYFQD,area with substrate ENLYFQG,area with substrate ENLYFQI,area with substrate ENLYFQL,area with substrate ENLYFQM,area with substrate ENLYFQN,area with substrate ENLYFQP,area with substrate ENLYFQR,area with substrate ENLYFQS,area with substrate ENLYFQT,area with substrate ENLYFQV,area with substrate ENLYFQW,area with substrate ENLYFQY,area with substrate ENLYFQH,area with substrate ENLYFQK,area with substrate ENLYFQF,area with substrate ENLYFQQ,area with substrate ENLYFQE
L77I,0.0868,0.0856,0.065,0.0781,0.0534,0.0576,0.0639,0.0794,0.0495,0.0606,0.0874,0.0668,0.074,0.0694,0.0469,–,–,–,–,–
L77Y,0.0654,–,–,0.0709,0.0449,0.0557,0.0698,0.0666,–,0.055,0.0612,–,0.0753,0.0775,0.0504,0.0684,0.0627,–,–,–
L77H,0.0551,0.0774,0.0537,0.0724,–,0.0547,0.0685,–,0.0626,0.0469,0.0679,0.0693,–,0.0277,–,0.062,0.0399,0.0459,–,–
N52C,0.0755,0.0692,0.0436,–,0.0727,0.0654,0.076,0.064,–,0.0568,0.0745,0.0601,–,0.0594,–,0.07,0.0578,–,–,–
N52V,0.0704,0.068,0.0578,0.0661,0.047,0.068,0.0649,0.0718,0.0221,0.0555,0.0712,0.0572,0.0649,0.0504,–,0.0675,0.0595,–,0.0697,–
N52P,0.0658,0.0477,0.0694,0.0534,0.0606,0.0516,–,0.0632,0.0587,0.0839,0.0734,0.0602,0.0569,–,–,–,–,0.0567,0.071,–
I42R,0.145,0.0474,0.0248,0.0309,0.0323,0.0462,0.0374,0.0285,–,0.046,0.0461,0.0506,0.0514,–,0.0399,0.0387,0.0484,0.0427,0.0359,0.0496
I42F,0.0711,0.0783,–,0.083,0.042,0.0575,–,0.06,0.0533,0.103,0.0704,0.0634,–,0.0541,0.0688,0.0576,0.0374,–,–,0.0731
I42A,0.0573,–,0.0559,–,0.0322,–,–,0.051,0.0194,0.0528,0.0684,0.0458,–,0.0501,0.0473,0.0703,0.0525,–,–,–
I42L,0.0767,0.116,–,0.0867,0.04,0.0742,–,0.0769,–,–,0.104,0.0584,0.0761,–,–,–,–,0.0606,–,–
L61H,0.12,0.133,0.0688,0.109,0.0547,–,–,0.0589,0.0498,0.0581,0.105,0.0713,–,0.0808,0.0729,0.0739,0.0636,–,–,–
L61W,0.092,0.104,–,0.071,0.0739,0.0219,0.072,0.0733,0.0544,0.0642,0.0949,0.0507,0.0597,0.0604,0.0808,–,0.0647,–,0.0698,0.06
N45T,0.0803,0.0886,0.0515,0.0901,0.0365,0.0368,0.0679,0.0612,0.0549,0.0639,0.0828,0.0661,0.0621,0.0468,0.0559,0.0613,0.0648,0.0458,–,–
K46T,0.0715,0.124,0.0728,0.0812,0.0526,0.0318,0.057,0.0655,0.0637,0.0565,0.0838,0.0564,0.0595,0.0588,0.0556,0.0748,0.0353,–,0.0978,0.0339
K46C,0.126,0.131,–,0.104,0.0629,0.0589,0.0762,0.0573,0.0568,0.0574,0.103,0.0817,0.0588,0.0434,0.0578,0.0752,–,0.0621,0.0624,–
K46A,0.121,0.199,0.0473,0.133,0.0607,0.0651,0.12,0.103,0.0655,0.0654,0.127,0.0634,0.0571,0.0733,0.0901,0.0987,0.0716,–,0.0889,0.0607
K46M,0.105,0.0829,0.0572,0.11,0.0506,0.0541,0.0563,–,0.0687,0.0556,0.0942,0.0564,0.0483,0.0369,0.0458,0.0666,0.106,–,–,0.0618
G39I,0.0507,0.0387,0.0467,0.0464,–,0.0371,0.0414,–,0.0505,0.0304,0.0459,0.0431,–,0.0444,0.0354,0.0432,0.0503,–,–,–
G39M,0.0432,0.0371,0.0419,0.0415,0.0417,0.037,0.0484,0.0444,0.0388,0.0335,0.043,0.0396,0.0379,0.0312,–,0.0403,0.042,–,0.03,0.0631
G39R,0.0367,0.0456,–,0.0482,0.0472,0.0416,–,–,–,0.0466,0.0477,0.0417,0.0594,0.0423,0.0602,–,0.045,–,–,–
T71E,0.0957,–,0.0604,–,0.0524,0.0642,0.0919,–,0.0574,0.0954,0.0841,0.0658,0.0842,0.064,0.0695,0.0735,0.063,–,–,–
Q75K,0.0826,0.083,0.0761,–,0.0437,–,0.0587,0.0738,0.0784,0.0744,0.0708,0.0621,–,0.06,0.0592,0.0428,–,0.0523,–,–
Q75F,0.0982,0.106,0.0682,0.0923,0.0577,0.0496,0.0783,0.0544,–,0.0625,0.0992,0.0603,0.0747,–,0.0784,0.0683,0.0605,–,–,–
